This sample is rich in variants without activity.
B1: TPR 5TU (parent)
chain: GGAUCUUCUCGAUCUAACAAAAAAGACAAAUCUGCCACAAAGCUUGAGAGCAUCUUCGGAUGCAGAGGCGGCAGCCUUCGGUGGCGCGAUAGCGCCAACGUUCUCAACUAUGACACGCAAAACGCGUGCUCCGUUGAAUGGAGUUUAUCAUG

Variants of: B1
Experiment: polymerase ribozyme fitness, log enrichment relative to wild type (log ratio); higher = more active; in vitro selection for triplet polymerase activity
Procedure, shortened: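 Fitness is a logarithmic measure of how a genotype enriched relative to the wild type, with replicate averages weighted by inverse variance. The logarithm uses base 2, and enrichment came from Illumina sequencing of input and output libraries. Those libraries were PCR-built, transcribed mutants of each subunit of a heterodimeric triplet polymerase ribozyme, passed through one triplicate in vitro selection round that included frozen incubation at −7 °C, gel excision of extended constructs and streptavidin-bead capture. Genotypes were kept only if they had ≥10 input reads and ≥1 read per output.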

| Variant | polymerase ribozyme fitness (log ratio) |
| --- | --- |
| C93G A142U | -3.03 |
| G94A A107U U148A | ≤ -4.2 |
| A91G C93U | -3.88 |
| G94C A97G A121U A122U | -0.691 |
| G92U C108U U148A | ≤ -4.2 |
| C96G A150U | 0.451 |
| G86U U104C C131A U135C | ≤ -4.2 |
| C95G A97C | -0.47 |
| G88A U109G C125U | ≤ -4.2 |
| A91U G152U | ≤ -4.2 |
| G86U U102G A150U | -3.59 |
| C87G U104C | ≤ -4.2 |
| C87A A147G | ≤ -4.2 |
| G94C A97U G136C | -3.35 |
| A91G U130G | ≤ -4.2 |
| G92A C108G | ≤ -4.2 |
| C93A A110U | -3.99 |
| G92U A106C | -0.0112 |
| G88C C129A A137G | ≤ -4.2 |
| G88A G117U | -3.84 |
| C95U C99G U102G U135G | ≤ -4.2 |
| G86U U90G G100A C116A A122C | ≤ -4.2 |
| C87A G126U G141C U144C | ≤ -4.2 |
| C87A G117U | ≤ -4.2 |

| Variant | polymerase ribozyme fitness (log ratio) |
| --- | --- |
| G88U C96U G124C G136U | ≤ -4.2 |
| C93A G126A A137G | -2.09 |
| C93G C123U G141U | -2.27 |
| U90A A106C A121U | ≤ -4.2 |
| A89G C95A C114U C125U | ≤ -4.2 |
| C87A A98G U130G | ≤ -4.2 |
| C87U U109C | -3.46 |
| C87A G128C U144A | ≤ -4.2 |
| C95A | 0.441 |
| C95U | -0.031 |
| A91U U145A | -4 |
| C87A C93G C114U G141C | ≤ -4.2 |
| G92U G124U G141C | -0.283 |
| G88A C125G | ≤ -4.2 |
| U90G | ≤ -4.2 |
| U90C | -2.87 |
| U90A | -4.07 |
| A91G A98U | -3.95 |
| C87A G124U G141A U148G | ≤ -4.2 |
| C93U G133C | -2.76 |
| C93G A98U C105G C116A A142G | ≤ -4.2 |
| C93G C108G A142C C149U U151G | ≤ -4.2 |
| G88A C95G U148G A150C | ≤ -4.2 |
| G94A G100C A115U | ≤ -4.2 |

| Variant | polymerase ribozyme fitness (log ratio) |
| --- | --- |
| C93G C105A G136U | ≤ -4.2 |
| A89G C103A A121G C125G U148A | ≤ -4.2 |
| C93A C116G U135G | ≤ -4.2 |
| C96U G126A | 0.845 |
| C93G U139A | ≤ -4.2 |
| A91C C96A A120U A122C G143U | -4.07 |
| C96U C131U | 0.576 |
| G92U A137G U151A | ≤ -4.2 |
| C87U C103G | -2.13 |
| G92U A113U G133A | ≤ -4.2 |
| A91G C108U | -3.97 |
| A91G C108G | ≤ -4.2 |
| A91U A106U G117A G136U | ≤ -4.2 |
| G88C C93G U102C G124A | ≤ -4.2 |
| C96A C105U A122U | 0.463 |
| G88U A106G | -3.91 |
| G88U A106U | ≤ -4.2 |
| G86U U148A | -3.6 |
| C95A C108G | ≤ -4.2 |
| A89U A150U | 1.51 |
| C93G C108G | -3.9 |
| C96G C108A C123G | -3.69 |
| G92A A120G A121C U148C | -4.16 |
| C93A C95A C103A U135A | ≤ -4.2 |

| Variant | polymerase ribozyme fitness (log ratio) |
| --- | --- |
| C93U G141A U146G | -3.48 |
| C87A A106U | -4.18 |
| G92U U148A | -2.71 |
| C87A U151G | ≤ -4.2 |
| G92U G133U | -3.41 |
| C87U G88A U111G | ≤ -4.2 |
| G94A G143A | -1.01 |
| C93U A142C | -0.842 |
| C93A U139C | ≤ -4.2 |
| G94C C149G | ≤ -4.2 |
| C96G U134G | -1.64 |
| G94A A97U | -1 |
| C96G C99G G143A U148G | ≤ -4.2 |
| C93U C118U G143C | ≤ -4.2 |
| C87A U104G C125G | ≤ -4.2 |
| G88C C114U G141U | ≤ -4.2 |
| C87G G128A U139A G143A U144C | ≤ -4.2 |
| C93U U148A | -3.85 |
| C87U G140U | -3.68 |
| C87U A150G G152U | ≤ -4.2 |
| A91U C99G | ≤ -4.2 |
| C87A A89C | ≤ -4.2 |
| C93U C118U | -1.84 |
| C95A C99A G100C C129G | ≤ -4.2 |

| Variant | polymerase ribozyme fitness (log ratio) |
| --- | --- |
| C87U U148A | -3.62 |
| G94C U145G | -0.944 |
| C95A C99A C123G | -1.33 |
| C93A U148G G152U | ≤ -4.2 |
| A89C C123A G128U | -3.31 |
| C93U A97C G140A | ≤ -4.2 |
| A91G G92U | -2.31 |
| C87U U90G U135A | ≤ -4.2 |
| C93U C116U A122U | -1.45 |
| C96G U144C | -0.123 |
| G94A G124A A150U | 0.987 |
| G88C A89G C96G G140C | ≤ -4.2 |
| C96G A97G | -2.61 |
| C96G A97U | -1.83 |
| A91G A137C G141U | ≤ -4.2 |
| C95A U101C | 0.62 |
| A91G A97U G117C U135A U148A | ≤ -4.2 |
| G88C G92U C114U A137G | ≤ -4.2 |
| C93U C99A | -3.72 |
| C93A G100C C118G A138G | ≤ -4.2 |
| C93U A107G G117A G140U | ≤ -4.2 |
| C87U G88C C125G G140A G143U | ≤ -4.2 |
| A91U G100A | ≤ -4.2 |
| C96U A107G G117A | ≤ -4.2 |

| Variant | polymerase ribozyme fitness (log ratio) |
| --- | --- |
| G94C U111C U135A A138U | ≤ -4.2 |
| G86U U104G C116A A142G A147C | ≤ -4.2 |
| A91C A115C | ≤ -4.2 |
| C87U U104A A138G G140C | ≤ -4.2 |
| G94A U101G | -0.0834 |
| A89G G92U U151C | ≤ -4.2 |
| G92U U146A | -0.393 |
| G92A G117C | -2.82 |
| A89C C93U G136C | ≤ -4.2 |
| G92U C93A G133U G140A | ≤ -4.2 |
| G94A U104C C149U | -1.16 |
| C93U A119G G143U U145G | -3.92 |
| G88A U90A C96U A97U | ≤ -4.2 |
| C87A C96U C99G U111C C125A | ≤ -4.2 |
| A89G C99G C116A | -1.92 |
| G88A G143U | ≤ -4.2 |
| G94C A97U A150G | -1.52 |
| A91U A97G U104C A122G G126U | ≤ -4.2 |
| C87A C116G A121U | ≤ -4.2 |
| C87U A107G A119U | ≤ -4.2 |
| C95G G141A A142C C149U | ≤ -4.2 |
| C87G G141C A150U | ≤ -4.2 |
| C87A U134A | ≤ -4.2 |
| A91G C131A A137C G143C | ≤ -4.2 |

| Variant | polymerase ribozyme fitness (log ratio) |
| --- | --- |
| G94C U134A G140C U146C | ≤ -4.2 |
| U90G G94U A106U | ≤ -4.2 |
| G92C A115U | -1.86 |
| U90C A91C G94A U101G G117A A121U G124U | ≤ -4.2 |
| G88A U127G C129U | ≤ -4.2 |
| C93A A106G | -1.9 |
| C93G G141C | -3.36 |
| G92A G136C | -3.83 |
| C96U C116U G140C U144G | -4.04 |
| C87U C93G A121U C132A | ≤ -4.2 |
| C87U G117A | -0.356 |
| G94A A110G | -2.35 |
| C87U A137G | -1.81 |
| G86U U101C C118U | -1.56 |
| A89C A150G | -0.921 |
| A91U C95G C116A G143U A147C | ≤ -4.2 |
| C96A C118U G133U A147C | ≤ -4.2 |
| G92U A120G G140A | ≤ -4.2 |
| C87G U90C C95U U127G C132U | ≤ -4.2 |
| C93A U146G | -3.27 |
| A91G A106G | -1.93 |
| G94U G100U U104G U109C A147C | ≤ -4.2 |
| C87A C123A A150U | -3.19 |

Reference: the RNAGym collection of RNA variant scans (doi:10.1073/pnas.2313332121)
